Among all 310,000 compounds or so, about 14,000 (4.5%) showed an effect of 50% or more. Effects have a minus sign here. The list shows a part of the results.
What follows are compounds tested against human ether-à-go-go-related gene (hERG) potassium channel (human, UniProt Q12809) (assay: primary screen, population patch clamp on CHO cells stably expressing hERG).
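Further: peak tail current of the secondary pulse compared with the same well before compound.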

Sequence of human ether-à-go-go-related gene (hERG) potassium channel (Q12809 whole entry, looked up): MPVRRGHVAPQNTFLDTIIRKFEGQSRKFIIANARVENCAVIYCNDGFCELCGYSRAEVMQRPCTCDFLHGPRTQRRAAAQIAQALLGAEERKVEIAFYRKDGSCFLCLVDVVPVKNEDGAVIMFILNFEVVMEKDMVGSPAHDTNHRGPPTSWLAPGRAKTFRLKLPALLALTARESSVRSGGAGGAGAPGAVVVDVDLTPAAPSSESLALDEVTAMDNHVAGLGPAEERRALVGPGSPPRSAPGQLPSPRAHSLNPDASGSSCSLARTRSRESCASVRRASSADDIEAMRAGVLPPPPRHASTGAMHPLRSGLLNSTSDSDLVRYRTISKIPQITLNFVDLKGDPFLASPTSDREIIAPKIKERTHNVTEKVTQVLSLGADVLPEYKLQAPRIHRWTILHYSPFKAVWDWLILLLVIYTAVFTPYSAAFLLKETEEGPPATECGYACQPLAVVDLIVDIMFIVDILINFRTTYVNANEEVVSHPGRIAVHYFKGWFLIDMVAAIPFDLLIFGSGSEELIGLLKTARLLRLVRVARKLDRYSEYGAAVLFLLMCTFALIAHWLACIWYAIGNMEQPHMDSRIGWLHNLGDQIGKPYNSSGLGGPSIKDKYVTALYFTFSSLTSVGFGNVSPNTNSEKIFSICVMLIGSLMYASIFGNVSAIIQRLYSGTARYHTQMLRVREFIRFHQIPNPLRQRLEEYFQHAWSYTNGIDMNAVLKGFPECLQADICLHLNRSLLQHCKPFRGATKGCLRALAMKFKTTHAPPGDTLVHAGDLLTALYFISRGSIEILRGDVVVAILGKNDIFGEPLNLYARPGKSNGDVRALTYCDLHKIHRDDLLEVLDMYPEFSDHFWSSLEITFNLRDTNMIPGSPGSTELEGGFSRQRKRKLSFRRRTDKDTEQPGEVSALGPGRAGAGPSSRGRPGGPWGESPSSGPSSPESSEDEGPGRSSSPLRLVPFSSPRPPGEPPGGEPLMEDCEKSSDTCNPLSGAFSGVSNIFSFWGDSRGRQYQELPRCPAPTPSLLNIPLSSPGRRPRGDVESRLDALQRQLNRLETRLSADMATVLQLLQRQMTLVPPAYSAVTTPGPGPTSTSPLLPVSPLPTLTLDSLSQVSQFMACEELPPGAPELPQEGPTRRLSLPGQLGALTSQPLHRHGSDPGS

Row | SMILES | hERG current change (%, negative = inhibition) at 10uM [%]
1 | O=C(C1CCC(CNS(=O)(=O)c2cccc3cccnc23)CC1)N1CCc2ccccc21 (centres unmarked) | -12.5
2 | O=C1CSc2ccc(C(=O)NCCC3=CCCCC3)cc2N1 | 19.5
3 | COc1cc(-c2nnco2)cc(OC)c1OC | 16.3
4 | O=C(NCc1ccco1)C(c1ccncc1)N(CCC1=CCCCC1)C(=O)Cn1nnc2ccccc21 (centres unmarked) | -7.38
5 | COc1cccc(-c2nnn(CC(=O)NC3CCCC3)n2)c1OC | 9.7
6 | COC(=O)CC(NC(=S)NC(=O)c1ccccc1)c1ccc(Br)cc1 (centres unmarked) | 6.8
7 | COc1ccccc1NC(=O)CCNC(=O)c1ccc(C)cc1 | 10
8 | CCOC(=O)C1CCN(C(=O)CNC(=O)c2nn(-c3ccc(OC)cc3)c(=O)c3ccccc23)CC1 | -9.73
9 | NS(=O)(=O)c1ccc(CCNC(=O)CSc2ccc(Cl)cc2Cl)cc1 | -16.4
10 | C=CCc1ccc(OCCN2CCc3ccccc3C2)c(OC)c1.O=C(O)C(=O)O | -67.6
11 | O=C(CN1CCCCC1)Nc1ccc(S(=O)(=O)NC2CCCCC2)cc1 | -43
12 | CCCCCCCCSc1nnc(/N=C/N(C)C)s1 | 9.23
13 | O=C(CSCCO)Nc1ccc(C23CC4CC(CC(C4)C2)C3)cc1 | 11.2
14 | Cn1c(-c2ccc(F)cc2)cnc1SCC(=O)NNC(=O)Cc1ccccc1 | 6.24
15 | CCc1ccc(CNC(=O)C2CCCN(S(=O)(=O)N3CC(C)CC(C)C3)C2)cc1 (centres unmarked) | 25.7
16 | CN(C(=O)CSc1nc2c(cnn2-c2ccccc2)c(=O)[nH]1)C1CCS(=O)(=O)C1 (centres unmarked) | 16.1
17 | COC(=O)c1sccc1NC(=O)Nc1ccccc1Cl | 11.1
18 | Cc1c(CC(=O)NCC(=O)O)c(=O)oc2cc3occ(-c4ccccc4)c3cc12 | 12.6
19 | CCOc1ccc(C2/C(=C(/O)c3ccc4c(c3)CC(C)O4)C(=O)C(=O)N2CCCn2ccnc2)cc1OCC (centres unmarked) | 25
20 | CCC(=O)NC(=S)Nc1cccc(Cl)c1N1CCCC1 | 11.1
21 | COc1ccc(N2C(=O)C(CC(=O)Nc3ccccc3)N(Cc3ccc4c(c3)OCO4)C2=O)cc1 (centres unmarked) | 12.1
22 | CCOc1ccc(/C=N/OCC(=O)NCc2ccco2)cc1 | -12.9
23 | C=CCn1c(SCC(=O)Nc2ccc(N3CCOCC3)cc2)nnc1-c1ccncc1 | -17.4

Row | SMILES | hERG current change (%, negative = inhibition) at 10uM [%]
24 | O=S1(=O)CCN(OCc2ccc(F)cc2Cl)CC1 | 34.4
25 | Cc1cc(=O)c(C(=O)O)nn1-c1cccc(C(F)(F)F)c1 | -74.6
26 | CC(=O)NCCC(=O)N1CCCC(N(C)CCc2ccccc2)C1 (centres unmarked) | -26.7
27 | O=C(Cn1nnc2c(sc3nc4c(c(-c5ccccc5)c32)CCC4)c1=O)c1ccccc1 | 25.9
28 | c1nc2nc3c(c(N4CCOCC4)n2n1)CCCC3 | -12.1
29 | Cc1cc2cc(CCNC(=O)c3cccc([N+](=O)[O-])c3)c(=O)[nH]c2cc1C | -47.1
30 | CCOc1ccc(N=Cc2c(O)n(Cc3ccccc3)c(=S)[nH]c2=O)cc1 | 10.5
31 | O=[N+]([O-])c1ccc(OCCCCCN2CCOCC2)cc1 | -58.6
32 | COc1cc(/C=C2/C(=N)N3N=C(CC(=O)N4CCOCC4)SC3=NC2=O)ccc1OC(C)c1ccccc1 (centres unmarked) | 11.7
33 | CC1CCCCC1NC(=O)Cn1nnc2ccccc2c1=O (centres unmarked) | 8.43
34 | CCC(=O)c1ccc(OCC(=O)OCC(=O)c2cc(C)n(CC3CCCO3)c2C)cc1 (centres unmarked) | -42.6
35 | CCc1ccc(CN(C)C(=O)c2cc(COc3ccc(OC)cc3Cl)on2)nc1 | -19.7
36 | O=C(CSc1nccn1-c1ccccc1)c1ccc(Cl)cc1 | -2.04
37 | C(=C\c1cccc2ccccc12)/c1nnc(-c2cccs2)o1 | 59.7
38 | O=C(N/N=C/c1ccncc1)c1sc2ccccc2c1Cl | 7.72
39 | COCCCNC(c1ccccc1)c1ccncc1.Cl (centres unmarked) | 10.4
40 | CC1C(c2ccccc2)C(C#N)(C#N)C2(C#N)C(=O)NC1(N)C2C (centres unmarked) | -3.25
41 | O=C(CN(C(=O)CCC(=O)Nc1nccs1)c1ccc2c(c1)OCO2)NCC1CCCO1 (centres unmarked) | 9.85
42 | O=C1CCCN1CCCNS(=O)(=O)c1ccc(Br)s1 | 9.72
43 | COc1ccc(NC(=O)c2c(Nc3ccccc3)sc(C(=O)c3ccc(F)cc3)c2N)cc1 | -3.94
44 | O=C(c1ccc(NC(=S)NCc2ccco2)cc1)N1CCCCC1 | -6.26
45 | O=C(O)COc1ccccc1O | 4.38
46 | Cc1nnc(SCC(=O)N(C)C2CCCCC2)s1 | 15.2

Row | SMILES | hERG current change (%, negative = inhibition) at 10uM [%]
47 | Cc1c(C(=O)N2CCCCC2)c(S(=O)(=O)N(C)Cc2ccccc2)c(C)n1C | 2.66
48 | O=C(c1ccc(F)cc1F)N1CCN(c2n[nH]c(=O)[nH]c2=O)CC1 | 9.72
49 | CCN1CCN(CCCNC(=O)c2cc3c(s2)-c2ccccc2OC3)CC1 | -66.7
50 | Cc1ccc(OCC(O)Cn2c(NCCc3ccccc3)nc3c2c(=O)[nH]c(=O)n3C)cc1 (centres unmarked) | -2.46
51 | CCCCOc1ccc(C(=O)N2CC(C)OC(C)C2)cc1 (centres unmarked) | -5.8
52 | COc1ccc(S(=O)(=O)NCc2ccccn2)cc1 | 13.7
53 | O=C1NC(c2ccc(Cl)cc2Cl)Oc2ccccc21 (centres unmarked) | 11.6
54 | Cc1cc(C)c2sc(NC(=O)C3CC3)nc2c1 | -12.1
55 | COc1cc(C)c(C(C)C)cc1S(=O)(=O)N1CCN(C)CC1 | -3.93
56 | Cc1ccc(-n2nc3ccc(N)cc3n2)c(C)c1 | 23.9
57 | OCCN1CCN(c2cc(C(F)(F)F)nc3ccccc23)CC1 | -8.62
58 | CCNC(=S)N(Cc1ccc2c(c1)OCO2)C1CC(=O)N(c2ccc(OC)cc2)C1=O (centres unmarked) | 4.43
59 | COc1ccc2cc(C(C)C(=O)N3CCC(C)CC3)ccc2c1 (centres unmarked) | -71.9
60 | CNC(=O)C1CCC(=O)N1Cc1ccc(C)cc1 (centres unmarked) | 11
61 | CC(=O)N(C1=NCCCS1)c1ccc(Cl)cc1 | 17.8
62 | COc1ccc(Cl)cc1NC(=O)CC(C)c1ccccc1 (centres unmarked) | -1.98
63 | O=C(Cc1c(O)c2ccccc2oc1=O)c1ccc(C(F)(F)F)cc1 | 16.7
64 | O=C(COC(=O)c1ccccc1NCCO)NCCc1ccccc1 | -2.39
65 | Cc1[nH]c2ccc(C(=O)O)cc2c1C | 10.8
66 | COc1ccccc1NS(=O)(=O)c1cccc(NC(=O)c2ccc3ccccc3n2)c1 | 3.05
67 | O=C(NCC12CC3CC(CC(C3)C1)C2)c1nc2ncccn2n1 | -49.8
68 | CC1CCc2c(C(=O)Nc3ccccn3)csc2C1 (centres unmarked) | -9.72
69 | N#CC(C#N)=Cc1ccc(NC(=O)c2ccc(Br)cc2)cc1 | 1.8

Row | SMILES | hERG current change (%, negative = inhibition) at 10uM [%]
70 | O=C(c1ccc(C23CC4CC(CC(C4)C2)C3)o1)N1CCOCC1 | -37.2
71 | S=C(NCc1ccccc1)NCc1ccc(CNC(=S)NCc2ccccc2)cc1 | 9.48
72 | Cc1ccnc(NS(=O)(=O)c2cc([N+](=O)[O-])ccc2C)c1 | 10.6
73 | Cc1ccc(-c2nnc(OCC3CCCO3)c3ccccc23)cc1 (centres unmarked) | -65.2
74 | Cc1nc2sc(C(c3cccs3)N3CCOCC3)c(O)n2n1 (centres unmarked) | -7.87
75 | O=C1CCCc2c1cc(C(=O)Nc1ccc(Br)cn1)c(=O)n2-c1ccccc1 | -2.93
76 | COc1cccc(NC(=O)CSCC(=O)O)c1 | 1.77
77 | O=C(CCNS(=O)(=O)c1ccc(Cl)cc1)NCc1ccccn1 | -13.1
78 | CC1(C)Cc2c(c(-c3ccccc3)nc(N3CCOCC3)c2C(N)=O)CO1 | -7.57
79 | Cc1ccc(N/C(=N/S(=O)(=O)c2cccs2)c2ccccc2)c(C)c1 | 5.96
80 | Cc1noc(C)c1S(=O)(=O)N1CCCC(C(=O)NCCc2ccccc2)C1 (centres unmarked) | 0.701
81 | COc1ccc2cc(C3(C)NC(=O)N(CC(=O)Nc4c(C)n(C)n(-c5ccccc5)c4=O)C3=O)ccc2c1 (centres unmarked) | 4.2
82 | COc1cccc(C(C(=O)NC(C)(C)C)N(CC(C)C)C(=O)CCC(=O)Nc2cc(C)on2)c1OC (centres unmarked) | 8.72
83 | Nc1nc(=S)[nH]c2c1C1(CCCCC1)Cc1ccccc1-2 | 0.291
84 | COc1ccc(C(c2c(O)nc[nH]c2=O)c2c(O)nc[nH]c2=O)cc1 | 22.2
85 | COc1ccccc1N(C(=O)Cn1nnc(-c2ccc(C)o2)n1)C(C(=O)NC1CCCC1)c1ccncc1 (centres unmarked) | 19.9
86 | CCN(CC)S(=O)(=O)c1cnccc1N1CCN(c2cccc(Cl)c2)CC1 | -8.04
87 | CC(C)CC(N)c1cn([C@@H](CCC(=O)O)C(=O)N2CCNCC2)nn1.Cl (some centres unmarked) | 17.2
88 | COc1cc(C(=O)NC(C)c2cnn(-c3ccccc3C)c2C)cc(OC)c1OC (centres unmarked) | -51
89 | Cn1c(=O)c2c(nc(NC3CCCCC3)n2CC(O)COc2ccccc2)n(C)c1=O (centres unmarked) | 13
